Assay results taken from the supplement of paper PMC3334620.
The full ranking holds about 33,000 sequences; the median of “E-score (-0.5 to 0.5)” is about -0.04, and the highest 2% start at about 0.36. The list shows a part of the results.

What follows are sequences tested against T1, Hmlalpha2 (UniProt P0CY09) (assay: PBM E-score (8-mer binding enrichment) (E-score (-0.5 to 0.5)); higher = stronger / more preferred TF binding; most listed sequences are background and not binding sites). Conditions: protein concentration: 200 nM; construct: GST-full length.
T1 sequence: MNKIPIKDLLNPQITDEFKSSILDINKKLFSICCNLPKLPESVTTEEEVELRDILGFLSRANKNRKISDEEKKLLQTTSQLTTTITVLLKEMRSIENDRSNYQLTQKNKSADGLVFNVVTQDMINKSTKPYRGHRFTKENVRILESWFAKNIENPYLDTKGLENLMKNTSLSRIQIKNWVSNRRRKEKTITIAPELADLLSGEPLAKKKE
Outline: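 PURExpress in vitro transcription/translation supplied GST-tagged yeast transcription factors, either full-length or DNA-binding domain. Applied at about 100-200 nM to universal all-10-mer Agilent arrays double-stranded by primer extension, the bound protein was detected with fluorescent anti-GST. E-scores, modified Wilcoxon-Mann-Whitney statistics, were given by the Universal PBM Analysis Suite to ungapped eight-base words pooled with their reverse complements after masliner normalisation.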

| Sequence | PBM E-score |
| --- | --- |
| ATGTAGTA | 0.391 |
| ATCAGCTC | -0.17 |
| GCACTGAA | -0.173 |
| CTTTAGGA | -0.143 |
| TGTTGAAA | 0.37 |
| CGGCCCCC | -0.33 |
| CTAACCCA | 0.0445 |
| TGTGAGAA | -0.0347 |
| GAGAGTCA | -0.263 |
| TCCACCCA | -0.218 |
| ACGGGATC | 0.0332 |
| AATTGTGA | 0.194 |
| CGGAGTTC | 0.0336 |
| AGTCCCAA | -0.297 |
| AACATTCC | 0.0723 |
| CGATTCCA | -0.168 |
| AAGCGTCA | 0.132 |
| GGTTAACC | -0.142 |
| GGCCGCCC | -0.138 |
| AACCTTTG | -0.0671 |
| ATGAAACC | 0.0645 |
| AGGTTACC | 0.0838 |
| CGAGGTTC | -0.0786 |
| AATCCTAC | -0.0218 |
| AGTCCAGC | -0.161 |

| Sequence | PBM E-score |
| --- | --- |
| CATCAAGC | -0.116 |
| ATTCGGCA | 0.0193 |
| CCATAACA | 0.333 |
| AGTCTTAA | -0.0272 |
| AGCGCGAC | -0.147 |
| CCCAGAAC | -0.101 |
| ATTTCTAA | 0.0315 |
| GTTGAGTA | 0.289 |
| CTAGCTAA | -0.104 |
| ACCGCTCG | -0.17 |
| ATTGGGTC | -0.154 |
| CGAGTCAC | -0.162 |
| CCGCGAGA | -0.185 |
| GAGCGCAA | -0.216 |
| TCGTATCA | 0.0109 |
| GCGGGTTA | 0.151 |
| AGCAGAAG | -0.123 |
| ACAGGCGC | -0.0936 |
| GAAGGATA | 0.0374 |
| AAATTATC | 0.221 |
| CGTTTGAC | 0.0383 |
| AGATTGAC | 0.0388 |
| GTGTAGGA | 0.275 |
| GACGTAAC | 0.143 |
| ATTTATGA | 0.067 |

| Sequence | PBM E-score |
| --- | --- |
| ATCCTTTA | 0.0247 |
| GTGTATGA | 0.262 |
| ACGGTTAA | 0.128 |
| ATGATCGG | -0.0619 |
| AGAGGTAT | 0.157 |
| CACGCGAA | 0.127 |
| CACAAGTG | 0.0286 |
| AATCTGCA | -0.0244 |
| CGCTCCGC | -0.25 |
| CCAGCACA | -0.115 |
| GTAGTGAA | 0.153 |
| TAGGCTAA | -0.181 |
| GAACAAAA | 0.13 |
| CACTATCA | -0.116 |
| TCTTTGAA | 0.037 |
| CCCACATA | -0.128 |
| ACCCAGGA | -0.0304 |
| ATTTCTAG | 0.0369 |
| AACCAAAA | 0.0962 |
| CAGTTCAA | -0.0276 |
| ATGACCTG | 0.0892 |
| AAGAAAAA | -0.0187 |
| GCGCTGAA | -0.185 |
| CGTTGCGA | 0.0644 |
| ACGCACCG | 0.109 |

| Sequence | PBM E-score |
| --- | --- |
| ATTACTGA | 0.165 |
| CCTCAATA | -0.132 |
| TCCAAAGA | 0.0194 |
| CTACTGAG | -0.127 |
| ACGCCCAC | -0.0157 |
| GGACTACC | -0.268 |
| AAGATGTG | 0.0226 |
| GGTTGTGA | 0.0449 |
| TTAGACAA | 0.167 |
| GGCGTCTA | -0.0133 |
| TATCGTGA | -0.102 |
| AAACACCT | 0.0638 |
| AGTTCCAT | 0.0354 |
| AGGTGTAC | 0.175 |
| GAGTACCA | 0.0958 |
| AAGGATGC | 0.0116 |
| CCTGCTAG | -0.14 |
| AGGCATTC | -0.265 |
| ACATCTCG | 0.104 |
| CTGATCGC | -0.0378 |
| AATGAGTG | 0.0154 |
| ATGCGGTC | -0.001 |
| AAGAATCC | -0.0955 |
| CCCGCCCC | -0.292 |
| ATCACTAA | 0.105 |

| Sequence | PBM E-score |
| --- | --- |
| CCATGCGA | -0.0215 |
| TAGCTTAA | 0.0077 |
| ACTATGCA | 0.0534 |
| GAAGCGCC | -0.112 |
| TAATATAA | 0.291 |
| GCTGACTA | -0.202 |
| GACGCAAA | -0.109 |
| AGAACCTA | -0.137 |
| ATGTCTCG | -0.118 |
| AAGTTGAA | 0.17 |
| CATTTGCA | 0.0835 |
| CCATACTC | -0.182 |
| AGTTCAAG | 0.17 |
| GCCTATGA | -0.147 |
| ACCATCTA | -0.0692 |
| AATCCCTC | -0.0909 |
| AGCGCGCA | 0.0691 |
| CGAGCTTC | 0.0383 |
| AGCGGCAA | -0.196 |
| AATTGAAC | 0.131 |
| GAGCCCCA | -0.267 |
| CCATACAG | -0.178 |
| ACCCCTGG | -0.31 |
| ACTATAGA | 0.00945 |
| GTCACGCA | -0.0567 |

| Sequence | PBM E-score |
| --- | --- |
| CACCACTC | -0.146 |
| CAGCAAGC | -0.251 |
| ACTCACTC | -0.105 |
| ACCACCGG | -0.224 |
| GCCATAAA | -0.175 |
| AATCCAAT | 0.0439 |
| GGTAAACC | -0.0161 |
| GTTATAAC | 0.25 |
| ATAACTCG | 0.109 |
| CCCAAGAA | -0.112 |
| TAAGGCGA | -0.142 |
| ACCTTACT | 0.118 |
| GATGGATA | -0.263 |
| AATGCGAA | 0.0749 |
| AACAGAGT | 0.172 |
| GTACGTAA | 0.34 |
| AAACAATA | 0.317 |
| GTCTCGAA | -0.0417 |
| AGTCTCTC | -0.306 |
| CAGCAAAG | -0.173 |
| TATCTTGA | 0.0127 |
| ATTGGCAG | -0.167 |
| ACGCTGCC | -0.108 |
| GACTAGAC | -0.00798 |
| CAAACACG | 0.314 |

| Sequence | PBM E-score |
| --- | --- |
| GCCGTTCC | -0.188 |
| TGCGCTAA | 0.0656 |
| GAAACCAC | -0.102 |
| GTTACGAA | 0.222 |
| ACGTGCAA | 0.123 |
| CAGCCCGC | -0.289 |
| GGCTCCTA | -0.211 |
| TACAAGGA | 0.291 |
| AAATTCTT | 0.0442 |
| CTTCACCC | -0.0454 |
| ACCTCCCG | -0.181 |
| TATCTGCA | 0.0142 |
| CGATGGCG | -0.15 |
| CAGGGGAC | -0.183 |
| AATCCGGT | -0.0356 |
| CAAGAGCC | -0.141 |
| CTTGAACA | 0.213 |
| AACGTCGC | 0.063 |
| AAGCCGGA | 0.097 |
| GCTAATCC | -0.048 |
| CACTGGGC | -0.126 |
| GGTGCATA | -0.156 |
